By stoichiometry N is commonly meant a count of units in the complex or per binding partner.

This note sets out measurements from publication PMC11154711, “Hotspot site microenvironment in the deubiquitinase OTUB1 drives its stability and aggregation” (The Journal of Biological Chemistry, 2024).

Series [1] concerns the molecule itself. Briefly: fluorescence correlation spectroscopy; 25 nM Atto-532-labelled protein with 350 uM unlabelled protein under aggregating conditions, time points 0, 6, 12, 24 h; size of the second peak from the hydrodynamic radius (Gaussian distribution model); 50 mM sodium phosphate, 150 mM NaCl, pH 7.2; room temperature.
Series [2] concerns the target T1, Ubc13 (E2 ubiquitin-conjugating enzyme) (UniProt P61088 1-152).
T1 construct: Ubc13, E2 ubiquitin-conjugating enzyme; the protein-coding frame subcloned into pGEX-6P-1; Coupled by amines (EDC/NHS) to the AR2G biosensor in the BLI assay
T1 sequence (looked up): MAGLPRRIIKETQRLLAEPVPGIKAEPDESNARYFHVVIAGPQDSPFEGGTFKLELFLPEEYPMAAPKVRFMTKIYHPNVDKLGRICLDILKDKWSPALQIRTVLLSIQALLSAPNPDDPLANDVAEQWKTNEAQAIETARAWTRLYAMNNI
Description: BLI; Ubc13 (25 ug) immobilised on amine-reactive (AR2G) biosensors by EDC/NHS in 10 mM acetate pH 5.0; OTUB1 and mutants 0-400 uM in 50 mM sodium phosphate pH 7.2, 300 mM NaCl; 120 s association, 120 s dissociation; 25 °C; sensor without Ubc13 subtracted; 1:1 model. Conditions: both partners purified.

B1: OTUB1 F133A (enzyme)
chain: not shown
notes: OTUB1, human, 271 residues, full-length ORF of pOPINK-OTUB1 with the mutation F133A; In the FCS experiment 25 nM protein labelled on cysteines with Atto-532 maleimide was mixed as a tracer with 350 uM unlabelled protein
For B1, the “stoichiometry N” value in series [1] was roughly 4 units. Besides, in series [2], the “fold reduction of Ubc13 binding against wild type” value is roughly 21 fold.

B2: OTUB1 V173K (enzyme)
chain: not shown
notes: OTUB1, human, 271 residues, full-length ORF of pOPINK-OTUB1 with the mutation V173K; In the FCS experiment 25 nM protein labelled on cysteines with Atto-532 maleimide was mixed as a tracer with 350 uM unlabelled protein
Consider B2, for which, in series [1], the “stoichiometry N” value is roughly 4 units.
